The list shows a part of the results. The energies were worked out here from pooled read counts, against the library average; single values are noisy.
Target: T1, Pho4 (S. cerevisiae) (UniProt P07270)
T1 sequence: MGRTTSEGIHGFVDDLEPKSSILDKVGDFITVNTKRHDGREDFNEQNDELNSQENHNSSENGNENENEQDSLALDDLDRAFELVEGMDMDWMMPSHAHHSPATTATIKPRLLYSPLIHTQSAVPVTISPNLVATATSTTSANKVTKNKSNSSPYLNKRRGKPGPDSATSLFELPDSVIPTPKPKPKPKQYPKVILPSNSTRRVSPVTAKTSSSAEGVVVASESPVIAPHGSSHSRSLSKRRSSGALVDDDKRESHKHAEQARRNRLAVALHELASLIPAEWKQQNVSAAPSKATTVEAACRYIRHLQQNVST
Assay: relative binding free energy (BET-seq); higher = weaker binding
Settings: reference: library average

Sequence	relative binding free energy
AACGTCACGTGATGTG	0.13 kcal/mol
TTGGCCACGTGAGCGT	0.14 kcal/mol
GATACCACGTGGGTGT	-0.26 kcal/mol
GGGGTCACGTGGGTCT	0.17 kcal/mol
AATAACACGTGTTGAT	-0.11 kcal/mol
ATTGGCACGTGATGCT	-0.15 kcal/mol
TTGCTCACGTGGTTTG	0.11 kcal/mol
GAAGTCACGTGTGTGA	0.12 kcal/mol
GGCGCCACGTGTGGGT	0.03 kcal/mol
TGGAACACGTGGTCGG	0.04 kcal/mol
TCTTGCACGTGCTGTA	-0.06 kcal/mol
TTAGGCACGTGCGAAG	-0.09 kcal/mol
GGACTCACGTGGATTG	0.36 kcal/mol
TAGTGCACGTGGCTAT	-0.14 kcal/mol
TAGTTCACGTGAGTTG	0.44 kcal/mol
ATTAGCACGTGTGCAG	-0.12 kcal/mol
CTAGGCACGTGATTTG	-0.11 kcal/mol
ACGCACACGTGGGGGG	-0.29 kcal/mol
AGATGCACGTGATGGG	0.05 kcal/mol
GGCGCCACGTGTTGGT	-0.09 kcal/mol
CTATTCACGTGAAGTT	0.29 kcal/mol

Sequence	relative binding free energy
ATTTTCACGTGTAAGG	0.23 kcal/mol
TAGAGCACGTGTGTTT	-0.06 kcal/mol
CATTGCACGTGTGGGG	0.05 kcal/mol
AAGAGCACGTGTTTTT	-0.11 kcal/mol
GTGTTCACGTGACGTT	0.23 kcal/mol
GTTGGCACGTGTCTCG	-0.07 kcal/mol
TGATACACGTGAAGTA	0.22 kcal/mol
TGGGTCACGTGAGGTC	0.28 kcal/mol
AATTGCACGTGTGACA	0.19 kcal/mol
GGAGTCACGTGGAAGA	0.19 kcal/mol
TGATACACGTGTGGGA	0.16 kcal/mol
TATTTCACGTGGGTCT	0.21 kcal/mol
CTAAACACGTGGTGGG	-0.12 kcal/mol
CTATACACGTGTTTAT	0.09 kcal/mol
TGTTTCACGTGTTGGG	0.33 kcal/mol
TGCTCCACGTGGTGGG	-0.12 kcal/mol
AGGGACACGTGGTACG	-0.18 kcal/mol
CGTGACACGTGTGGTA	-0.04 kcal/mol
GGCATCACGTGATTGT	0.27 kcal/mol
TCAATCACGTGGTGGG	0.16 kcal/mol
ATCATCACGTGGGTTT	-0.08 kcal/mol

Sequence	relative binding free energy
TGATGCACGTGGTGCA	-0.11 kcal/mol
CGATTCACGTGAGTGG	0.28 kcal/mol
CGGTTCACGTGGTTTT	0.34 kcal/mol
GGGTTCACGTGTTGCG	0.28 kcal/mol
TGTCGCACGTGGCGTT	-0.24 kcal/mol
CGGGACACGTGATTGT	0.14 kcal/mol
ACTAGCACGTGGTGTT	-0.1 kcal/mol
AATATCACGTGTGTTT	0.04 kcal/mol
ATGTGCACGTGAGAGT	0.23 kcal/mol
AGTTGCACGTGATGGT	0.17 kcal/mol
TTGCGCACGTGGTTGG	-0.11 kcal/mol
GAAATCACGTGGTAGT	0.2 kcal/mol
TGGGCCACGTGGCGGC	-0.17 kcal/mol
TTTAACACGTGGAGTA	0.1 kcal/mol
ATGAACACGTGGTGTA	-0.15 kcal/mol
AGTGTCACGTGAGGAC	0.26 kcal/mol
AGATCCACGTGATGGT	0.12 kcal/mol
TGGCACACGTGCGTGG	-0.12 kcal/mol
CGTGTCACGTGGTAAT	0.16 kcal/mol
ATTGGCACGTGATCTT	-0.09 kcal/mol
ATAATCACGTGAGGGT	0.46 kcal/mol

Reference: the BET-seq Pho4 binding data (Le et al. 2018)
